For this experiment, the target named is T1, approximately 55 kDa protein derived from the human pancreatic cancer cell line PANC-1 (vimentin) (human, UniProt P08670).
T1 construct: Endogenous protein on Western blots of the PANC-1 insoluble (membrane) fraction; also called antigenic protein
Description: Western blot of the PANC-1 insoluble fraction. How it is done:
Each 10 μg of the proteins in the insoluble fraction after solubilization of the homogenate of the PANC-1 cell with the RIPA buffer was subjected to electrophoresis on 10% acrylamide gel. The protein was transferred from the gel to a PVDF membrane and the membrane was blocked. The transferred PVDF membrane was reacted with the purified γ-HoA. described in Example (13-7) at 37° C. for 1 hour. The PVDF membrane was washed with PBS-T. The resulting PVDF membrane was added with an HRP-conjugated goat antibody against a human antibody (1,000-fold dilution, CAPPEL) and further reacted at 37° C. for 1 hour.
A general note: Immunoblotting shows a protein as a band on a membrane.

T1 sequence (P08670 2-466 limits assumed): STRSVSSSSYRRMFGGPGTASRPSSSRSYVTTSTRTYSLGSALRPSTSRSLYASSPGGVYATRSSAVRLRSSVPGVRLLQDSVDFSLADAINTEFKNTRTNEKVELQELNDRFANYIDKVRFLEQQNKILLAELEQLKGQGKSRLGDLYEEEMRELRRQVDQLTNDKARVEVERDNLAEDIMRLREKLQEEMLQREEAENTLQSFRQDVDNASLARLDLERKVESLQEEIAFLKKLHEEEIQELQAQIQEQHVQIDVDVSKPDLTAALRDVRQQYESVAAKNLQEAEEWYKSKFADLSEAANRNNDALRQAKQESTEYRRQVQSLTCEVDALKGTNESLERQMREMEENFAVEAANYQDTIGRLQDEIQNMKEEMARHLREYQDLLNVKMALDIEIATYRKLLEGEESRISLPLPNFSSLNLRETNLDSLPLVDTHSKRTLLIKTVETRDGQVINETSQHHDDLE

B1: γ-HoA. (recombinant HoAKs-1 antibody) (antibody, V domains shown)
VH: EVQLVESGGGVVQPGRSLRLSCAASGFTFSSYAMHWVRQAPGKGLEWVAVISYDGSNKYYADSVKGRFTISRDNSKNTLYLQMNSLRAEDTAVYYCARDRHSYDFWSGSLDYWGQGTLVTVSS
VL: [about 100 residues not shown]
notes: Human IgG1 kappa recombinant antibody made in CHO cells; also called γ-HoA. antibody; HoAKs-1 recombinant antibody
Turning to B1, the binding result is recorded as “binds”.

The record behind these values is patent US20060088538A1 (MITSUBISHI PHARMA, published 2006).
